Residue numbers refer to the chain shown, from its start. This is one part of the list.
T1: RBFOX1 RRM (Homo sapiens, UniProt Q9NWB1 109-208)
T1 sequence: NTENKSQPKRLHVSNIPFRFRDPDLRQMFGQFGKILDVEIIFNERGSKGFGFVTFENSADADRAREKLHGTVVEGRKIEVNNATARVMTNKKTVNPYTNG

B1: UAUUGAG (DNA:RNA)
RNA: GGGAGACCGGAAUUCAGAUUGUCCUAUUGAGUUAAAUCCCGUCGUAGCCACCA
DNA 1: CAATCTGAATTCCGGTCTCCC
DNA 2: TGGTGGCTACGACGGGATT
B2: AGAACCU (DNA:RNA)
RNA: GGGAGACCGGAAUUCAGAUUGUCCAGAACCUUUAAAUCCCGUCGUAGCCACCA
DNA 1: CAATCTGAATTCCGGTCTCCC
DNA 2: TGGTGGCTACGACGGGATT
B3: CCAAUAA (DNA:RNA)
RNA: B2 RNA with A25C, G26C, C29U, C30A, U31A
DNA 1: CAATCTGAATTCCGGTCTCCC
DNA 2: TGGTGGCTACGACGGGATT
B4: UAUACGC (DNA:RNA)
RNA: B1 RNA with U28A, G29C, A30G, G31C
DNA 1: CAATCTGAATTCCGGTCTCCC
DNA 2: TGGTGGCTACGACGGGATT
B5: GGAAGAU (DNA:RNA)
RNA: B2 RNA with A25G, C29G, C30A
DNA 1: CAATCTGAATTCCGGTCTCCC
DNA 2: TGGTGGCTACGACGGGATT
B6: UUUCGUC (DNA:RNA)
RNA: B1 RNA with A26U, U28C, A30U, G31C
DNA 1: CAATCTGAATTCCGGTCTCCC
DNA 2: TGGTGGCTACGACGGGATT
B7: AUUUCGA (DNA:RNA)
RNA: B2 RNA with G26U, A27U, A28U, C30G, U31A
DNA 1: CAATCTGAATTCCGGTCTCCC
DNA 2: TGGTGGCTACGACGGGATT
B8: UCCUUCC (DNA:RNA)
RNA: B1 RNA with A26C, U27C, G29U, A30C, G31C
DNA 1: CAATCTGAATTCCGGTCTCCC
DNA 2: TGGTGGCTACGACGGGATT
B9: CCUGAUA (DNA:RNA)
RNA: B1 RNA with U25C, A26C, U28G, G29A, A30U, G31A
DNA 1: CAATCTGAATTCCGGTCTCCC
DNA 2: TGGTGGCTACGACGGGATT
B10: UACCGGC (DNA:RNA)
RNA: B1 RNA with U27C, U28C, A30G, G31C
DNA 1: CAATCTGAATTCCGGTCTCCC
DNA 2: TGGTGGCTACGACGGGATT
B11: GCCCGGC (DNA:RNA)
RNA: B1 RNA with U25G, A26C, U27C, U28C, A30G, G31C
DNA 1: CAATCTGAATTCCGGTCTCCC
DNA 2: TGGTGGCTACGACGGGATT
B12: UCCCGGU (DNA:RNA)
RNA: B1 RNA with A26C, U27C, U28C, A30G, G31U
DNA 1: CAATCTGAATTCCGGTCTCCC
DNA 2: TGGTGGCTACGACGGGATT
B13: AACAACA (DNA:RNA)
RNA: B2 RNA with G26A, A27C, C29A, U31A
DNA 1: CAATCTGAATTCCGGTCTCCC
DNA 2: TGGTGGCTACGACGGGATT
B14: UUUCAUA (DNA:RNA)
RNA: B1 RNA with A26U, U28C, G29A, A30U, G31A
DNA 1: CAATCTGAATTCCGGTCTCCC
DNA 2: TGGTGGCTACGACGGGATT
B15: UAACUCA (DNA:RNA)
RNA: B2 RNA with A25U, G26A, A28C, C29U, U31A
DNA 1: CAATCTGAATTCCGGTCTCCC
DNA 2: TGGTGGCTACGACGGGATT
B16: GAGCAUC (DNA:RNA)
RNA: B1 RNA with U25G, U27G, U28C, G29A, A30U, G31C
DNA 1: CAATCTGAATTCCGGTCTCCC
DNA 2: TGGTGGCTACGACGGGATT
B17: AAUCCAU (DNA:RNA)
RNA: B2 RNA with G26A, A27U, A28C, C30A
DNA 1: CAATCTGAATTCCGGTCTCCC
DNA 2: TGGTGGCTACGACGGGATT
B18: AUGUUCU (DNA:RNA)
RNA: B2 RNA with G26U, A27G, A28U, C29U
DNA 1: CAATCTGAATTCCGGTCTCCC
DNA 2: TGGTGGCTACGACGGGATT
B19: GAUGAGU (DNA:RNA)
RNA: B1 RNA with U25G, U28G, G29A, A30G, G31U
DNA 1: CAATCTGAATTCCGGTCTCCC
DNA 2: TGGTGGCTACGACGGGATT
B20: AUUCAUC (DNA:RNA)
RNA: B2 RNA with G26U, A27U, A28C, C29A, C30U, U31C
DNA 1: CAATCTGAATTCCGGTCTCCC
DNA 2: TGGTGGCTACGACGGGATT
B21: ACUAGCA (DNA:RNA)
RNA: B2 RNA with G26C, A27U, C29G, U31A
DNA 1: CAATCTGAATTCCGGTCTCCC
DNA 2: TGGTGGCTACGACGGGATT
B22: CACUAUC (DNA:RNA)
RNA: B1 RNA with U25C, U27C, G29A, A30U, G31C
DNA 1: CAATCTGAATTCCGGTCTCCC
DNA 2: TGGTGGCTACGACGGGATT
B23: ACAGACU (DNA:RNA)
RNA: B2 RNA with G26C, A28G, C29A
DNA 1: CAATCTGAATTCCGGTCTCCC
DNA 2: TGGTGGCTACGACGGGATT
B24: GCUUGAC (DNA:RNA)
RNA: B1 RNA with U25G, A26C, G31C
DNA 1: CAATCTGAATTCCGGTCTCCC
DNA 2: TGGTGGCTACGACGGGATT
B25: AGUGAUC (DNA:RNA)
RNA: B2 RNA with A27U, A28G, C29A, C30U, U31C
DNA 1: CAATCTGAATTCCGGTCTCCC
DNA 2: TGGTGGCTACGACGGGATT
B26: AAGGUAC (DNA:RNA)
RNA: B1 RNA with U25A, U27G, U28G, G29U, G31C
DNA 1: CAATCTGAATTCCGGTCTCCC
DNA 2: TGGTGGCTACGACGGGATT
B27: AGCGACC (DNA:RNA)
RNA: B2 RNA with A27C, A28G, C29A, U31C
DNA 1: CAATCTGAATTCCGGTCTCCC
DNA 2: TGGTGGCTACGACGGGATT
B28: GGUUAUG (DNA:RNA)
RNA: B1 RNA with U25G, A26G, G29A, A30U
DNA 1: CAATCTGAATTCCGGTCTCCC
DNA 2: TGGTGGCTACGACGGGATT
B29: AACCUUA (DNA:RNA)
RNA: B2 RNA with G26A, A27C, A28C, C29U, C30U, U31A
DNA 1: CAATCTGAATTCCGGTCTCCC
DNA 2: TGGTGGCTACGACGGGATT
B30: UUAGCCC (DNA:RNA)
RNA: B2 RNA with A25U, G26U, A28G, U31C
DNA 1: CAATCTGAATTCCGGTCTCCC
DNA 2: TGGTGGCTACGACGGGATT
B31: CCACGGC (DNA:RNA)
RNA: B2 RNA with A25C, G26C, A28C, C29G, C30G, U31C
DNA 1: CAATCTGAATTCCGGTCTCCC
DNA 2: TGGTGGCTACGACGGGATT

Molecular target: T1, RBFOX1 RRM
Experiment: EMSA; HiTS-Eq, 1 nM pool, 10 min; buffer printed only for the single-RNA assays: 10 mM Tris pH 7.5, 150 mM NaCl, 3.4 mM EDTA, 0.001% NP-40, 30 C
Conditions: tags: His6 N-terminal (pET28a); label: 5' 32P
Outline: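 Purified RbFox RRM (wild type or mutant) was equilibrated for 10 min in 50 µL with 1 nM of a 5′-radiolabelled pool of RNA with 7 randomized nucleotides, its flanks annealed to DNA oligonucleotides, across increasing protein concentrations. Free RNA was separated by 8% native PAGE, excised, reverse-transcribed, PCR-barcoded and sequenced on an Illumina HiSeq 2500. Relative association constants came from read-count changes of each variant against the control reaction, normalised to the cognate motif.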

Compared with B1, B2 is lower in binding signal: 0.0205 KA relative to UGCAUGU for the first, 0.00339 KA relative to UGCAUGU for the second.

First: B3
Second: B4
The binding signal of the first is lower: 0.00155 KA relative to UGCAUGU for the first, 0.00682 KA relative to UGCAUGU for the second.

Compared with B5, B6 is higher in binding signal: 0.0142 KA relative to UGCAUGU for the first, 0.0145 KA relative to UGCAUGU for the second.

Compared with B7, B8 is lower in binding signal: 0.00963 KA relative to UGCAUGU for the first, 0.00163 KA relative to UGCAUGU for the second.

First: B9
Second: B10
The binding signal of the first is lower: 0.00741 KA relative to UGCAUGU for the first, 0.00859 KA relative to UGCAUGU for the second.

Compared with B11, B12 is lower in binding signal: 0.019 KA relative to UGCAUGU for the first, 0.00796 KA relative to UGCAUGU for the second.

First: B13
Second: B14
The binding signal of the first is lower: 0.000963 KA relative to UGCAUGU for the first, 0.0017 KA relative to UGCAUGU for the second.

Compared with B15, B16 is higher in binding signal: 0.00212 KA relative to UGCAUGU for the first, 0.018 KA relative to UGCAUGU for the second.

First: B17
Second: B18
The binding signal of the first is lower: 0.00103 KA relative to UGCAUGU for the first, 0.0115 KA relative to UGCAUGU for the second.

First: B19
Second: B20
The binding signal of the first is higher: 0.0163 KA relative to UGCAUGU for the first, 0.000479 KA relative to UGCAUGU for the second.

First: B21
Second: B22
The binding signal of the first is higher: 0.0108 KA relative to UGCAUGU for the first, 0.00222 KA relative to UGCAUGU for the second.

Compared with B23, B24 is higher in binding signal: 0.00134 KA relative to UGCAUGU for the first, 0.0267 KA relative to UGCAUGU for the second.

First: B25
Second: B26
The binding signal of the first is higher: 0.0108 KA relative to UGCAUGU for the first, 0.00764 KA relative to UGCAUGU for the second.

First: B27
Second: B28
The binding signal of the first is higher: 0.0119 KA relative to UGCAUGU for the first, 0.0112 KA relative to UGCAUGU for the second.

Compared with B29, B30 is higher in binding signal: 0.000536 KA relative to UGCAUGU for the first, 0.00664 KA relative to UGCAUGU for the second.

B31 was tested, and the binding signal was 0.00532 KA relative to UGCAUGU.

Source: paper PMC9911399, “Two distinct binding modes provide the RNA-binding protein RbFox with extraordinary sequence specificity”
